{"source": "paper PMC10726135", "note": "Some of the results follow. At the low end of the ranking, values are background and their order means little. The protein was read in a cell extract, so binding may be indirect.", "data": [{"target": "T1, HNF4alpha2 (COS-7 nuclear extract) (UniProt P41235)", "T1 sequence": "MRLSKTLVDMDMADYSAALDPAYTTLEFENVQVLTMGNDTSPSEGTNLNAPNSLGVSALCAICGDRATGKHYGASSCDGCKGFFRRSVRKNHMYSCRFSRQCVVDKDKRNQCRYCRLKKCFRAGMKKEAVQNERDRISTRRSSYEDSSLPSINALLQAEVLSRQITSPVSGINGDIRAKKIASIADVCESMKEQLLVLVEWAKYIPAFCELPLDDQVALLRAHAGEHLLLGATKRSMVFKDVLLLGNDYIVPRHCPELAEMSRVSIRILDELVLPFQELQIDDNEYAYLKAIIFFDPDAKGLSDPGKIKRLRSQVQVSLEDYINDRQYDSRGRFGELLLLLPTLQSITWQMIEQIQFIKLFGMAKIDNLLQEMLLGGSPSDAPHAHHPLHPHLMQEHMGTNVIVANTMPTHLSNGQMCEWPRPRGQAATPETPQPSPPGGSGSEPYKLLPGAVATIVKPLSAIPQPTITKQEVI", "test": "protein-binding microarray", "details": "COS-7 nuclear extract on double-stranded Agilent 4x180k PBM; binding buffer, salt, pH and temperature not given; high values mean tight binding; double strand, one strand shown; sequences stand for … in …GCCTAGGGAGATTAGAGTATCGGTCGA", "values": [{"sequence": "GCACACCGGACTGCGTTTTTTCCGAACGCC", "binding signal (log2 normalized intensity)": -1.07}, {"sequence": "AGAGGGGAAGGATGAATTTAAAAAATTCTA", "binding signal (log2 normalized intensity)": -1.1}, {"sequence": "AAGCTCATGAAGCTTCCCCTTTAACCAATA", "binding signal (log2 normalized intensity)": 1.25}, {"sequence": "GGGAGTTGTAGTTTTTTGGGCCCCTAGACT", "binding signal (log2 normalized intensity)": 0.531}, {"sequence": "TTAATGTCAAACTGATCAGAAGTGGTTACA", "binding signal (log2 normalized intensity)": 0.594}, {"sequence": "ACTTTGGTTCACCGCTCACTGCTCCAGCCA", "binding signal (log2 normalized intensity)": -1.09}, {"sequence": "CACATTGCAGTATGCCCCCCCACCCCACAC", "binding signal (log2 normalized intensity)": 6.96}, {"sequence": "CTAGATTCCAGGAAGAAAGATTGAAGTCTG", "binding signal (log2 normalized intensity)": 0.476}, {"sequence": "ACTTTGACCTTGTTTTCAATGACTACCTGT", "binding signal (log2 normalized intensity)": 1.84}, {"sequence": "ATTACCTGTTCTAAGCACCTCTGCTTATCT", "binding signal (log2 normalized intensity)": -1.11}, {"sequence": "TGCACATGAGTTCCCGGCAAGCCGACTTAC", "binding signal (log2 normalized intensity)": -1.06}, {"sequence": "TTCTAGATGACCCCTCTCTACTGGTAAGCA", "binding signal (log2 normalized intensity)": 2.56}, {"sequence": "GCATGCACTGGGGTTTAAAGTTTATAGGCT", "binding signal (log2 normalized intensity)": 0.415}, {"sequence": "GGTTTTTGTCAAAGATAGTTGTAGTTACAG", "binding signal (log2 normalized intensity)": 1.78}, {"sequence": "GTGGGGACCTGGACTCCCAAGATGGATTGG", "binding signal (log2 normalized intensity)": 0.682}, {"sequence": "TGTGGGTGAGGCTGTGATGTTTGCCCATGA", "binding signal (log2 normalized intensity)": 0.829}, {"sequence": "AGGCAAGGAATTTGGAATTCCCTGCAAGGA", "binding signal (log2 normalized intensity)": -1.18}, {"sequence": "ATAGAGGAGTCAAGCAAACACACTTGCTCT", "binding signal (log2 normalized intensity)": -1.09}, {"sequence": "GTACAAACACATACCTTAAATAAGAGACTC", "binding signal (log2 normalized intensity)": -1.16}, {"sequence": "CGTCTAAACAAACTCCCAGTCTGTTATCAG", "binding signal (log2 normalized intensity)": -1.06}, {"sequence": "AAAGTTCATCTGGGCTTTAGGTTTGGTGTT", "binding signal (log2 normalized intensity)": 1.97}, {"sequence": "TCAAGGGTCATTTGTTTTTACAGACAGGCA", "binding signal (log2 normalized intensity)": 1.81}, {"sequence": "GCCTGGCCAAGTTGAGGAGTTTGTACTTTA", "binding signal (log2 normalized intensity)": 3.24}, {"sequence": "GTAACAAAGGAAAGAGCTAACATATACCAT", "binding signal (log2 normalized intensity)": -1.39}, {"sequence": "TCTACCTTTGGCCTGGGGATTTACTAAAGT", "binding signal (log2 normalized intensity)": 0.556}, {"sequence": "CACACTGTTTGCGCAAACTATCTAAACAGA", "binding signal (log2 normalized intensity)": -0.673}, {"sequence": "AGTGAGCCAAGGTACCCTGGCTTGTAATTC", "binding signal (log2 normalized intensity)": -1.12}, {"sequence": "CCCCCTCCTCACCCCACTTTGGTTCACCGC", "binding signal (log2 normalized intensity)": 4.22}, {"sequence": "CCCTATTTCCCTCTGTGCCCGAGCTGTCTT", "binding signal (log2 normalized intensity)": 1.42}, {"sequence": "TCCTGAAGCCCTTCTTCTGGAGCCTCAGTA", "binding signal (log2 normalized intensity)": -1.15}, {"sequence": "CCTTTCGGTGGGACTAAATTCTGCGGCGGA", "binding signal (log2 normalized intensity)": -0.759}, {"sequence": "AAGCTGCTGCCAAGCGTCAGTCATACAGAG", "binding signal (log2 normalized intensity)": -1.14}, {"sequence": "GTCAGAACTGTGGACTCGCTGCCTTTTATC", "binding signal (log2 normalized intensity)": 0.745}, {"sequence": "CCTACGCTACGCACCAGGCATACTCCTCCT", "binding signal (log2 normalized intensity)": -1.08}, {"sequence": "AGATAAGACAAGCTCTGTTTGTTTTGTTAC", "binding signal (log2 normalized intensity)": 1.3}, {"sequence": "GAGTGCCCTTGCCGAGAGCGGCTCGTTGGT", "binding signal (log2 normalized intensity)": -1.11}, {"sequence": "TTTGTATGGCAGGGGTTAACCTCTATTGAC", "binding signal (log2 normalized intensity)": 2.16}, {"sequence": "AATCTCCAACAAGGCAGGAGATTCCACATT", "binding signal (log2 normalized intensity)": -1.09}, {"sequence": "CCTGAGAGGCCAGTTTGACCTTTGCATTCT", "binding signal (log2 normalized intensity)": 7.56}, {"sequence": "TTGCCCACATTCACACAATCAGTGTGTTGA", "binding signal (log2 normalized intensity)": -0.0239}, {"sequence": "CCAAAGTCCATGCTATTAAGCACTAGAAAG", "binding signal (log2 normalized intensity)": -1.01}, {"sequence": "ATTCTGCATTTTTCTTTCCTGTAAATAATT", "binding signal (log2 normalized intensity)": 1.26}, {"sequence": "TCACCAGCTAAGCTGTTACTCATTCCCAGG", "binding signal (log2 normalized intensity)": -0.888}, {"sequence": "TAAGCAGAGGATGGGAATTAGGGAGTAGGG", "binding signal (log2 normalized intensity)": -1.12}, {"sequence": "AGGCAGAGAGGCTGCTCAGTTTAAGTCAAA", "binding signal (log2 normalized intensity)": -1.13}, {"sequence": "CAGGGGAATGGAGACACACCTGCGGTGACT", "binding signal (log2 normalized intensity)": -1.13}, {"sequence": "GGCAATTGTGTTTGTCTTAGGGGGTCTGGT", "binding signal (log2 normalized intensity)": 1.53}, {"sequence": "AACTTTTCCATGTCCAAAGGTCTTCATGAG", "binding signal (log2 normalized intensity)": 3.46}, {"sequence": "ATCTCACAGATTAAGTCACGTGGAGATAAC", "binding signal (log2 normalized intensity)": 1.39}, {"sequence": "CAACTGGTATGTTAGATTAGTGTGCAGCTT", "binding signal (log2 normalized intensity)": 0.891}, {"sequence": "ATTCAGCATTGCTTGGGAGCAGTCCTTGGG", "binding signal (log2 normalized intensity)": -0.333}, {"sequence": "AGAGGCACCAAGGCCGGAAAAGATTAGATT", "binding signal (log2 normalized intensity)": -1.08}, {"sequence": "GAGAGAGAGAATAGCTCAGGTCCAAGGAAC", "binding signal (log2 normalized intensity)": -1.12}, {"sequence": "GGAGACCCATGGCAGAGGCTGTACTCCTCA", "binding signal (log2 normalized intensity)": -1.16}, {"sequence": "GCTGGAAAGGCCACCACAAACCCTTCATCC", "binding signal (log2 normalized intensity)": -1.24}, {"sequence": "GTGGGGGTGGAGGCAGCAGCTCCAATTAGG", "binding signal (log2 normalized intensity)": -1.06}, {"sequence": "AGAGCAGCTAGTAGGAGCGGGCTTAACTAG", "binding signal (log2 normalized intensity)": -0.97}, {"sequence": "CCTTTGAGGAGGCCTTTCCTGACCCCTCCT", "binding signal (log2 normalized intensity)": 4.34}, {"sequence": "GGCACAGGTCAAAAATGATGCCTGACTCAA", "binding signal (log2 normalized intensity)": -1.06}, {"sequence": "CATCATCTGTTTGTACGCGTCGAACTAGCT", "binding signal (log2 normalized intensity)": -0.65}, {"sequence": "CTTAGAGATAATGGGGGAGCCACTGCAGCT", "binding signal (log2 normalized intensity)": -1.22}, {"sequence": "AGGGTCTGGTTCCAAAGTCTGCAGATTAAA", "binding signal (log2 normalized intensity)": 1.61}, {"sequence": "GTCCCTGGGGACAGGGATTAAGTACCGCTC", "binding signal (log2 normalized intensity)": -1.17}, {"sequence": "AAATACATTCTGAACCAATGCCACAGAAAA", "binding signal (log2 normalized intensity)": -1.14}, {"sequence": "ATCTCTGTCCCTGATACCATTATCTCCAGC", "binding signal (log2 normalized intensity)": -0.687}, {"sequence": "TGACATCCCTATGTTGTCCCTGCCCTTTGT", "binding signal (log2 normalized intensity)": 3.86}, {"sequence": "AGAGAAATGAGGCACAGTAACCTGACCCCC", "binding signal (log2 normalized intensity)": 5.46}, {"sequence": "AAGGTAAATATTGTCAGTGAGGAATGTGCA", "binding signal (log2 normalized intensity)": 0.722}, {"sequence": "GGGCGCTGTCCGCCGCCTCGTGGTGCTGAT", "binding signal (log2 normalized intensity)": -1.1}, {"sequence": "CGCTGTAGAAAGTGGTTTCAAGGTGACCCC", "binding signal (log2 normalized intensity)": 5.64}, {"sequence": "TTAAAGGATATCATCAGTGCCATTCATTAG", "binding signal (log2 normalized intensity)": -1}, {"sequence": "AAGGTCAGGGGCAGGGTCGCGCGGGCTGCT", "binding signal (log2 normalized intensity)": -1.09}, {"sequence": "CTTCCAGAAATGCCAAGATCAGGGCTAAGA", "binding signal (log2 normalized intensity)": -1.09}, {"sequence": "CTCTTATCTGAATGTATGGGCTATTTATGA", "binding signal (log2 normalized intensity)": 1.27}, {"sequence": "CTTACTTTTATCAGGTAAAGATATGGAACA", "binding signal (log2 normalized intensity)": 1.6}, {"sequence": "GGTTTTCTTGCAAACATTACTGGCACACAG", "binding signal (log2 normalized intensity)": 0.444}, {"sequence": "ATCTCTGTGGGAGGGAAGGAGCCTAACTTT", "binding signal (log2 normalized intensity)": -1.17}, {"sequence": "CCTAACTTGTGGCTGGGTGATCTGGGAAAC", "binding signal (log2 normalized intensity)": -0.353}, {"sequence": "GAGGTCACAACAGAAAGCAAGAGCACAAGA", "binding signal (log2 normalized intensity)": -1.09}, {"sequence": "CTTTTTAGGAAACATTTCCATTGAAGCAGA", "binding signal (log2 normalized intensity)": -1.15}, {"sequence": "TCAAATATGTCTCTCCTATTCAGGTATTTG", "binding signal (log2 normalized intensity)": 2.03}, {"sequence": "CTCCCTTGCACCAGTTTCTCAACAGACCCC", "binding signal (log2 normalized intensity)": 3.04}, {"sequence": "GCACAGTGCCTGGCATGTGATAGGCATGCA", "binding signal (log2 normalized intensity)": 0.972}, {"sequence": "CTGCACAGCATAGAAAACAAGTTAGACAGT", "binding signal (log2 normalized intensity)": -1.1}, {"sequence": "CTAGGAGACAACTTAGAATTTCATTTTGCT", "binding signal (log2 normalized intensity)": -1.11}, {"sequence": "CATTGTTGGGATAAAATTCAACAGAGCTAT", "binding signal (log2 normalized intensity)": -1.21}, {"sequence": "CCACTTACCACCCACAGAGGGGGTTTGTTT", "binding signal (log2 normalized intensity)": -0.547}, {"sequence": "TCTCTACGACTTGCTTATCTTACGCAACTG", "binding signal (log2 normalized intensity)": -0.407}, {"sequence": "AGAAAACACAGAGATCTGATCAAAGGTCAT", "binding signal (log2 normalized intensity)": 5.9}, {"sequence": "GGTGAAGGGGTCACCTCGCTCCCCTCCTGT", "binding signal (log2 normalized intensity)": 1.11}, {"sequence": "TAGGGAAAATAGTGACCCTGTCTCTCAGTC", "binding signal (log2 normalized intensity)": 0.859}, {"sequence": "CTCACCTGGATGTTTTGATGAACTTTCAAG", "binding signal (log2 normalized intensity)": 2.09}, {"sequence": "CATACTTCTTCCTGTTTGACCTTCGAACCC", "binding signal (log2 normalized intensity)": 9.59}]}]}
